Changes are numbered by the printed parent chain. Results are given in words; binding and its absence hold for the method and conditions named. Some results given as binding are weak or reduced against the parent protein; the word gives no strength.
Tests used:
Assay in all cases: two-hybrid; Gal4 DNA-binding domain (pGBD) and activation domain (pGAD) fusions in S. cerevisiae pJ69-4a; growth on SD His- and Ade-deficient plates, 30°C, 4-5 days
[1] = target: T1, RecG R484E Gal4 hybrid (E. coli) (UniProt P24230)
T1 sequence: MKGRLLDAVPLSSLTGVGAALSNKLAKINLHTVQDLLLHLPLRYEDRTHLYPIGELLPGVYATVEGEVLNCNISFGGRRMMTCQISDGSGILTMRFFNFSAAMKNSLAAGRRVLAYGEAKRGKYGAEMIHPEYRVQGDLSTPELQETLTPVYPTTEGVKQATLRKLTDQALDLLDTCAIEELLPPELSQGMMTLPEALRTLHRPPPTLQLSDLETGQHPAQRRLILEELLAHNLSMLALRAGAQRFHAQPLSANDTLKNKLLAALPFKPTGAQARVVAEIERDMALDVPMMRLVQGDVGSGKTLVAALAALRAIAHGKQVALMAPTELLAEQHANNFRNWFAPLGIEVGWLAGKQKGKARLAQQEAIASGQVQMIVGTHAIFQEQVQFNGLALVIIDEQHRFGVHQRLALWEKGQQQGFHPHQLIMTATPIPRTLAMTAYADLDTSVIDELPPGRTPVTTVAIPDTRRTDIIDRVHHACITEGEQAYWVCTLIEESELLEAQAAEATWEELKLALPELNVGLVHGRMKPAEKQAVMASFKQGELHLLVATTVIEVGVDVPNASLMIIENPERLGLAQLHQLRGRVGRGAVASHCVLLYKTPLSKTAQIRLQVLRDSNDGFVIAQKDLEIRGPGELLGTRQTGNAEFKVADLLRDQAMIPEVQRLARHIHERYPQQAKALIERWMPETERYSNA

Amino acid sequences for entries named in this document (tags omitted).
UniProt P0AGE0: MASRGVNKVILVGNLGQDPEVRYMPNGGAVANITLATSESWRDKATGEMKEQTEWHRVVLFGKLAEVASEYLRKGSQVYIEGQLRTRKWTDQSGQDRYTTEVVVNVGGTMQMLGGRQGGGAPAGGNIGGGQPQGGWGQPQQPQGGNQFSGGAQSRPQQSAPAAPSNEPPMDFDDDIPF

[2] = target: T2, RecG R95A Gal4 hybrid (E. coli) (UniProt P24230)
T2 sequence: T1 sequence with R95A, E484R

[3] = target: T3, RecG F75A Gal4 hybrid (E. coli) (UniProt P24230)
T3 sequence: T1 sequence with F75A, E484R

binding [1]: binds | binding [2]: binds | binding [3]: binds
Substance: SSB Gal4 hybrid (from UniProt P0AGE0 1-178)
